Here are results for 120 sequences from the supplement of paper PMC10126150.

Sequences with one replicate were seen in a single cluster, so their values are uncertain.
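Note: ATP exposure 15 min at 22 °C before imaging.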

The data set concerns ATP. The experiment in a line: switch fluorescence ratio, 500 uM ATP over buffer (Cy3 cluster intensity, sum of 5 cycles each) (fold (ratio)); higher = stronger signal-on switching upon ATP binding; sequences stand for … in TCGTCGGCAGCGTCAGATGTGTATAAGAGACAGTTTTTTTTTTTTTTTTTTTTTTTTT…TC. The note with it: aptamer strand: ATP DNA aptamer (quencher-CACCTGGGGGAGTATTGCGGAGGAAGG + anchor), 100 nM annealed; ATP concentration: 500 uM; one replicate. In a few lines: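 Between each of five buffer/ATP cycles, the flow-cell was stripped with NaOH and re-annealed. Each cycle imaged Cy3-labelled switching-strand clusters, annealed to 100 nM quencher-labelled ATP aptamer on a modified Illumina MiSeq flow-cell, first in selection buffer and then after 15 min with 500 uM ATP at 22 °C. The fluorescence ratio is summed target-cycle over summed buffer-cycle Cy3 intensity per cluster, averaged per switch-domain sequence, with clusters outside 100-1000 RFU excluded.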
With TTCGTCTAAA, the switch fluorescence ratio was 1.06.

Take AAAGTTGCTG: the switch fluorescence ratio was determined as 0.972.

TAGGGGCGGA: the switch fluorescence ratio was 1.03.

In the case of GCTAATTAAA, the switch fluorescence ratio turned out to be 1.

As to CACATACTGC, the switch fluorescence ratio is 1.46.

Turning to TCAGTCAAAG, the switch fluorescence ratio turned out to be 0.989.

On to CCGGAGGTCT, for which the switch fluorescence ratio was found to be 1.18.

Regarding TTATGTACAT, the switch fluorescence ratio was 0.97.

In the case of CCAGTAGGGG, the switch fluorescence ratio worked out at 1.03.

TATGCGTAC: the switch fluorescence ratio came out at 1.14.

Turning to CATTGAAGTT, the switch fluorescence ratio was found to be 0.995.

In the case of AAGAGCCTGG, the switch fluorescence ratio was determined as 0.967.

Take TCGTGATCGT: the switch fluorescence ratio was 1.01.

Turning to CTTATATGTT, the switch fluorescence ratio came to 0.961.

With TAGCAATTCG, the switch fluorescence ratio is 1.84.

AAATACCGTG: the switch fluorescence ratio was 1.

As to ATCTCTCTTT, the switch fluorescence ratio worked out at 0.982.

Consider CGGTAAGTAT, for which the switch fluorescence ratio is 0.983.

Take CGTGGTGCCA: the switch fluorescence ratio was determined as 0.954.

On to AGGAGACTTG, for which the switch fluorescence ratio was 1.01.

For CGAGATTCTA, the switch fluorescence ratio stood at 0.984.

As to TCGAACGCGC, the switch fluorescence ratio is 2.19.

For the sequence ATACGCCAGA, the switch fluorescence ratio stood at 1.09.

For CTCACGGTGG, the switch fluorescence ratio came to 0.963.

On to TTGTCAGGGA, for which the switch fluorescence ratio is 1.04.

Take ATATTCTGGA: the switch fluorescence ratio came out at 0.996.

As to ACAAGATCTC, the switch fluorescence ratio was found to be 1.01.

Consider AAAGACATAA, for which the switch fluorescence ratio is 1.08.

With GGCTGAACCC, the switch fluorescence ratio was 1.01.

For AAAAATGAAT, the switch fluorescence ratio is 1.02.

As for TAAGCCTGGG, the switch fluorescence ratio turned out to be 0.933.

As for ATGTGTATCT, the switch fluorescence ratio was 0.998.

With CCTGGTTCCG, the switch fluorescence ratio amounted to 1.21.

With ATAGCTCGCA, the switch fluorescence ratio was found to be 1.01.

On to AAACTCGGTG, for which the switch fluorescence ratio stood at 1.01.

Take TCCTTGGTCT: the switch fluorescence ratio came out at 0.999.

In the case of GGAAAGGCA, the switch fluorescence ratio was 1.03.

Consider TTTATTAAGA, for which the switch fluorescence ratio came out at 0.997.

As to ACGTTACGGG, the switch fluorescence ratio stood at 1.47.

Regarding TGAAAGTATA, the switch fluorescence ratio was found to be 1.05.

For CCAGAGTGGG, the switch fluorescence ratio turned out to be 1.07.

ATAACGGGAG: the switch fluorescence ratio amounted to 1.01.

As for GGTGTGGTG, the switch fluorescence ratio amounted to 0.981.

Turning to AAAGAGGATT, the switch fluorescence ratio came out at 0.957.

For the sequence GCGACAACGT, the switch fluorescence ratio worked out at 1.

With TCCAGCGTAG, the switch fluorescence ratio was 1.04.

In the case of TATGCGACTG, the switch fluorescence ratio was 1.14.

Regarding TTGGTGGTAA, the switch fluorescence ratio was 0.983.

AACGAGGTTG: the switch fluorescence ratio was determined as 0.994.

For the sequence ACACAAGGGA, the switch fluorescence ratio worked out at 1.02.

On to ACGGCGAGG, for which the switch fluorescence ratio is 0.979.

With GGTGAAGCGG, the switch fluorescence ratio worked out at 0.993.

For the sequence GAGTCAGTTC, the switch fluorescence ratio was 1.06.

Regarding TTTGAGCGGA, the switch fluorescence ratio worked out at 0.973.

Turning to TTGGTCTACT, the switch fluorescence ratio was 0.972.

For the sequence ACTTTCTGCT, the switch fluorescence ratio worked out at 0.978.

As for TCCACCCTTT, the switch fluorescence ratio came to 1.02.

Consider TTCTTGGTAG, for which the switch fluorescence ratio is 0.936.

As to ATCTGCAAGA, the switch fluorescence ratio turned out to be 1.06.

As for AATAATGCAT, the switch fluorescence ratio was 1.06.

For the sequence TTTTTAAAGA, the switch fluorescence ratio was 0.997.

As for GTGTCGGTAT, the switch fluorescence ratio is 1.03.

Consider AGTAGGCGTT, for which the switch fluorescence ratio is 1.02.

As for GGTGGTTAGA, the switch fluorescence ratio was determined as 0.962.

On to AAGACAGGTT, for which the switch fluorescence ratio is 1.03.

For TTCGCGACCA, the switch fluorescence ratio came out at 0.966.

TAGATAACAC: the switch fluorescence ratio came to 1.03.

On to TTGATCACGC, for which the switch fluorescence ratio was determined as 1.01.

As for GGTCGGAGGC, the switch fluorescence ratio came out at 0.93.

In the case of CTCCGTTAAT, the switch fluorescence ratio came out at 0.991.

As to TAATACACAA, the switch fluorescence ratio is 1.03.

On to AGTAAGTAGT, for which the switch fluorescence ratio was determined as 0.992.

Regarding TTTATTGAAT, the switch fluorescence ratio is 0.995.

With AGCGGGGACC, the switch fluorescence ratio turned out to be 1.02.

With TGACGAGCGT, the switch fluorescence ratio was 2.98.

Turning to CATCTAGAGA, the switch fluorescence ratio was found to be 1.

For CTCACTTAT, the switch fluorescence ratio worked out at 1.08.

In the case of TAGAATGGGG, the switch fluorescence ratio is 0.98.

Turning to GCGTCCACAC, the switch fluorescence ratio is 1.04.

Regarding CACACGGAAT, the switch fluorescence ratio is 1.38.

For GACCCTTGCA, the switch fluorescence ratio is 0.985.

As to TTTTGACGAT, the switch fluorescence ratio was found to be 0.984.

With CCTCCACGGG, the switch fluorescence ratio is 3.78.

As for CAGTTGTAGT, the switch fluorescence ratio is 1.02.

Turning to TTTAGGGATC, the switch fluorescence ratio was found to be 1.02.

Take AGTAAGCTAG: the switch fluorescence ratio came to 0.996.

Take ACGAAGCCCA: the switch fluorescence ratio amounted to 1.35.

Turning to ATCTCGGTC, the switch fluorescence ratio came to 0.983.

As for TTGGCACGGT, the switch fluorescence ratio worked out at 0.99.

With CATAAGGGCA, the switch fluorescence ratio worked out at 0.999.

Turning to TCTATGGTTG, the switch fluorescence ratio turned out to be 0.902.

As to ATGCGGATGC, the switch fluorescence ratio came out at 0.988.

For the sequence AGACCTATTC, the switch fluorescence ratio came out at 1.06.

AGTTGGATAG: the switch fluorescence ratio was determined as 1.03.

With CGTCAAGAGT, the switch fluorescence ratio is 1.02.

On to GGTTTGTT, for which the switch fluorescence ratio was determined as 1.01.

On to ATCAAAAGGG, for which the switch fluorescence ratio stood at 1.01.

Consider TGATTTGCCC, for which the switch fluorescence ratio came out at 1.03.

As to ACCGGCGTGG, the switch fluorescence ratio amounted to 0.996.

As to TGGGCGTTCG, the switch fluorescence ratio was found to be 1.03.

As to CAGAGAGTGT, the switch fluorescence ratio came to 1.01.

For the sequence ATAGTGGGTA, the switch fluorescence ratio is 0.966.

Consider CTACGTAAGG, for which the switch fluorescence ratio was found to be 1.35.

Consider CTGAGGGATA, for which the switch fluorescence ratio was determined as 1.08.

As to ACCATATGCT, the switch fluorescence ratio stood at 1.09.

Consider GGCTAAGACG, for which the switch fluorescence ratio was 1.05.

Consider CGTTCCCTGT, for which the switch fluorescence ratio was 0.986.

Take TTCCTCAGGA: the switch fluorescence ratio stood at 1.01.

Turning to TGAGATACAC, the switch fluorescence ratio stood at 1.05.

Regarding TTTGAACCAG, the switch fluorescence ratio came to 0.988.

For ACTGTGACTT, the switch fluorescence ratio stood at 1.17.

TGGTTGAAA: the switch fluorescence ratio is 0.967.

With CCGAGAGTTA, the switch fluorescence ratio is 1.18.

TGTTCGGCAC: the switch fluorescence ratio was determined as 1.03.

In the case of CGATGGATT, the switch fluorescence ratio was 0.973.

AACGCGCGGG: the switch fluorescence ratio was 0.984.

As to GGCTGACAAG, the switch fluorescence ratio is 1.02.

As for TGATAACTGA, the switch fluorescence ratio turned out to be 1.01.

As to TGAGTATTGA, the switch fluorescence ratio is 1.02.

Turning to TTAGGCAATA, the switch fluorescence ratio came to 2.
